Experimental data published in the supplement of paper PMC4604168 (melanoma cell lines).
The list shows a part of the results. Most values come without repeats; read them as rough.

Legend:
Assay in all cases: cell count relative to DMSO control; melanoma cells; higher = more viable cells
Details in all cases: library dose: standard library concentration; 72 h
[1] = system: SkMel28
[2] = system: SkMel2
[3] = system: SkMel30
[4] = system: SkMel5
[5] = system: UACC257
[6] = system: UACC62
[7] = system: WM115
[8] = system: WM1716
[9] = system: WM1745
[10] = system: WM3526
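Also: cells treated in 1,536-well plates, then fixed and DAPI-stained, with nuclei counted from automated high-throughput microscope images.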

Compound	cell count [1] [%]	cell count [2] [%]	cell count [3] [%]	cell count [4] [%]	cell count [5] [%]	cell count [6] [%]	cell count [7] [%]	cell count [8] [%]	cell count [9] [%]	cell count [10] [%]
CCCS(=O)(=O)Nc1ccc(F)c(C(=O)c2c[nH]c3ncc(Cl)cc23)c1F + Cn1cncc1[C@@](N)(c1ccc(Cl)cc1)c1ccc2c(c1)c(-c1cccc(Cl)c1)cc(=O)n2C [tipifarnib] (first compound 0.4 µM, partner dose 0.05 µM)	29.9	70	81.7	47.1	73.9	49.9	54	57.9	63.5	51.3
CS(=O)(=O)c1ccc(C(=O)Nc2ccc(Cl)c(-c3ccccn3)c2)c(Cl)c1 [vismodegib] + Cn1nnc2c(C(N)=O)ncn2c1=O [temozolomide] (first compound 5 µM, partner dose 10 µM)	43	85	70.3	73.8	106	49.4	82.1	68.3	128	73
CCCS(=O)(=O)Nc1ccc(F)c(C(=O)c2c[nH]c3ncc(Cl)cc23)c1F + Nc1cccc2c1CN(C1CCC(=O)NC1=O)C2=O [lenalidomide] (first compound 0.4 µM, partner dose 5 µM)	60	143	103	66.9	99	55.7	107	76.5	85.6	62.8
CS(=O)(=O)c1ccc(C(=O)Nc2ccc(Cl)c(-c3ccccn3)c2)c(Cl)c1 [vismodegib] + OCc1c[nH]c2ccccc12 [Indole-3-carbinol] (first compound 5 µM, partner dose 4 µM)	96.7	101	81	117	101	105	107	103	92.1	122
C=C(c1ccc(C(=O)O)cc1)c1cc2c(cc1C)C(C)(C)CCC2(C)C [Bexarotene] + OCCn1cc(-c2cnc3nnn(Cc4ccc5ncccc5c4)c3n2)cn1 [PF04217903] (first compound 10 µM, partner dose 5 µM)	62.2	80.5	110	82.9	84.2	70.8	61.4	63.8	59.2	76.4
CCCS(=O)(=O)Nc1ccc(F)c(C(=O)c2c[nH]c3ncc(Cl)cc23)c1F + Cn1nnc2c(C(N)=O)ncn2c1=O [temozolomide] (first compound 0.4 µM, partner dose 10 µM)	29.4	95.6	58.8	74.8	105	61	69.4	55.8	95.1	41.1
CCCS(=O)(=O)Nc1ccc(F)c(C(=O)c2c[nH]c3ncc(Cl)cc23)c1F + COc1cc(Nc2ncc(F)c(Nc3ccc4c(n3)NC(=O)C(C)(C)O4)n2)cc(OC)c1OC [Tamatinib] (first compound 0.4 µM, partner dose 2 µM)	50.8	77.1	95.1	58.5	71	59.4	55.9	31.8	33.5	48.1
CN(c1ncccc1CNc1nc(Nc2ccc3c(c2)CC(=O)N3)ncc1C(F)(F)F)S(C)(=O)=O + C[C@@H]1CCN(C(=O)CC#N)C[C@@H]1N(C)c1ncnc2[nH]ccc12 [CP690550] (first compound 0.4 µM, partner dose 5 µM)	133	92.6	124	107	91.2	78.8	86.3	92.2	93	105
CN(c1ncccc1CNc1nc(Nc2ccc3c(c2)CC(=O)N3)ncc1C(F)(F)F)S(C)(=O)=O + C=CCn1c(=O)c2cnc(Nc3ccc(N4CCN(C)CC4)cc3)nc2n1-c1cccc(C(C)(C)O)n1 [MK1775] (first compound 0.4 µM, partner dose 0.1 µM)	60.4	71.5	106	73.7	75.9	87.4	66.5	77.9	44.1	97.3
NC1(c2ccc(-c3nc4ccn5c(=O)[nH]nc5c4cc3-c3ccccc3)cc2)CCC1 + Nc1ncn([C@H]2C[C@H](O)[C@@H](CO)O2)c(=O)n1 [decitabine] (first compound 2 µM, partner dose 0.5 µM)	51.9	73.9	91.4	80.4	99	63.3	59.7	68.2	81.8	61.6
NC1(c2ccc(-c3nc4ccn5c(=O)[nH]nc5c4cc3-c3ccccc3)cc2)CCC1 + CCCS(=O)(=O)Nc1ccc(F)c(C(=O)c2c[nH]c3ncc(Cl)cc23)c1F [PLX4720] (first compound 2 µM, partner dose 0.4 µM)	27.9	88.3	86	53.3	92.3	46.3	32.4	64.1	64.9	51.7
C=C(c1ccc(C(=O)O)cc1)c1cc2c(cc1C)C(C)(C)CCC2(C)C [Bexarotene] + Cn1cncc1[C@@](N)(c1ccc(Cl)cc1)c1ccc2c(c1)c(-c1cccc(Cl)c1)cc(=O)n2C [tipifarnib] (first compound 10 µM, partner dose 0.05 µM)	68.2	70.8	99.8	98.9	90.1	81	77.6	72.5	102	98.3
NC1(c2ccc(-c3nc4ccn5c(=O)[nH]nc5c4cc3-c3ccccc3)cc2)CCC1 + Cc1nc(Nc2ncc(C(=O)Nc3c(C)cccc3Cl)s2)cc(N2CCN(CCO)CC2)n1 [dasatanib] (first compound 2 µM, partner dose 0.02 µM)	49.9	70.6	88.7	65.6	70.8	45.7	38.9	66.6	37.4	60.2
CN(c1ncccc1CNc1nc(Nc2ccc3c(c2)CC(=O)N3)ncc1C(F)(F)F)S(C)(=O)=O + C=C(c1ccc(C(=O)O)cc1)c1cc2c(cc1C)C(C)(C)CCC2(C)C [Bexarotene] (first compound 0.4 µM, partner dose 10 µM)	56.5	69.6	86.5	85.4	77.3	54.5	67.3	84.5	67.7	93.9
C=C(c1ccc(C(=O)O)cc1)c1cc2c(cc1C)C(C)(C)CCC2(C)C [Bexarotene] + Nc1ccn([C@@H]2O[C@H](CO)[C@@H](O)C2(F)F)c(=O)n1 [gemcitabine] (first compound 10 µM, partner dose 0.002 µM)	60.1	84.2	117	80.7	101	71.7	62.5	50.4	50.1	83.6
CCCS(=O)(=O)Nc1ccc(F)c(C(=O)c2c[nH]c3ncc(Cl)cc23)c1F + O=C(CCCCCCC(=O)Nc1ccccc1)NO [vorinostat] (first compound 0.4 µM, partner dose 0.4 µM)	40	79.9	104	60.6	66	66.8	99.2	96.4	69.6	45.5
CS(=O)(=O)c1ccc(C(=O)Nc2ccc(Cl)c(-c3ccccn3)c2)c(Cl)c1 [vismodegib] + C[C@@H]1CCN(C(=O)CC#N)C[C@@H]1N(C)c1ncnc2[nH]ccc12 [CP690550] (first compound 5 µM, partner dose 5 µM)	76.3	88.6	104	85.7	79.1	77.9	82.3	96.3	83.4	102
CS(=O)(=O)c1ccc(C(=O)Nc2ccc(Cl)c(-c3ccccn3)c2)c(Cl)c1 [vismodegib] + COc1cc2c(Oc3ccc4[nH]c(C)cc4c3F)ncnc2cc1OCCCN1CCCC1 [cediranib] (first compound 5 µM, partner dose 2 µM)	127	94.6	91.2	88.5	97.1	131	118	108	81.5	90.7
CS(=O)(=O)c1ccc(C(=O)Nc2ccc(Cl)c(-c3ccccn3)c2)c(Cl)c1 [vismodegib] + CC(=O)c1c(C)c2cnc(Nc3ccc(N4CCNCC4)cn3)nc2n(C2CCCC2)c1=O [palbociclib] (first compound 5 µM, partner dose 0.2 µM)	58.6	69.9	76.1	69.9	78.2	64.1	70.3	52	87.7	59.6
CN(c1ncccc1CNc1nc(Nc2ccc3c(c2)CC(=O)N3)ncc1C(F)(F)F)S(C)(=O)=O + CN1CCN(c2ccc3nc(-c4c(N)c5c(F)cccc5[nH]c4=O)[nH]c3c2)CC1 [Dovitinib] (first compound 0.4 µM, partner dose 0.5 µM)	52.4	59.1	66.7	53.7	67.8	65.4	64.2	76.4	41.5	70.9
CN(c1ncccc1CNc1nc(Nc2ccc3c(c2)CC(=O)N3)ncc1C(F)(F)F)S(C)(=O)=O + OCc1c[nH]c2ccccc12 [Indole-3-carbinol] (first compound 0.4 µM, partner dose 4 µM)	56.5	70.3	86	61	65	63.1	65	73.4	62.6	79.8
NC1(c2ccc(-c3nc4ccn5c(=O)[nH]nc5c4cc3-c3ccccc3)cc2)CCC1 + NCC(=O)Nc1ccc(-n2nc(C(F)(F)F)cc2-c2ccc3c(ccc4ccccc43)c2)cc1 [OSU03012] (first compound 2 µM, partner dose 5 µM)	34	39.7	41.6	57.4	75.6	61.3	75	96.4	101	47.4
